# Measured values published in PMC4336329 (PLoS ONE, 2015).
# In all, about 310,000 compounds went through this assay and about 2,200 (0.71%) showed an effect of 50% or more. Effects have a minus sign here. The list shows a part of the results.
# Molecular target: human ether-à-go-go-related gene (hERG) potassium channel (human, UniProt Q12809)
# Experiment: primary screen, population patch clamp on CHO cells stably expressing hERG
# human ether-à-go-go-related gene (hERG) potassium channel, sequence (Q12809 whole entry, looked up): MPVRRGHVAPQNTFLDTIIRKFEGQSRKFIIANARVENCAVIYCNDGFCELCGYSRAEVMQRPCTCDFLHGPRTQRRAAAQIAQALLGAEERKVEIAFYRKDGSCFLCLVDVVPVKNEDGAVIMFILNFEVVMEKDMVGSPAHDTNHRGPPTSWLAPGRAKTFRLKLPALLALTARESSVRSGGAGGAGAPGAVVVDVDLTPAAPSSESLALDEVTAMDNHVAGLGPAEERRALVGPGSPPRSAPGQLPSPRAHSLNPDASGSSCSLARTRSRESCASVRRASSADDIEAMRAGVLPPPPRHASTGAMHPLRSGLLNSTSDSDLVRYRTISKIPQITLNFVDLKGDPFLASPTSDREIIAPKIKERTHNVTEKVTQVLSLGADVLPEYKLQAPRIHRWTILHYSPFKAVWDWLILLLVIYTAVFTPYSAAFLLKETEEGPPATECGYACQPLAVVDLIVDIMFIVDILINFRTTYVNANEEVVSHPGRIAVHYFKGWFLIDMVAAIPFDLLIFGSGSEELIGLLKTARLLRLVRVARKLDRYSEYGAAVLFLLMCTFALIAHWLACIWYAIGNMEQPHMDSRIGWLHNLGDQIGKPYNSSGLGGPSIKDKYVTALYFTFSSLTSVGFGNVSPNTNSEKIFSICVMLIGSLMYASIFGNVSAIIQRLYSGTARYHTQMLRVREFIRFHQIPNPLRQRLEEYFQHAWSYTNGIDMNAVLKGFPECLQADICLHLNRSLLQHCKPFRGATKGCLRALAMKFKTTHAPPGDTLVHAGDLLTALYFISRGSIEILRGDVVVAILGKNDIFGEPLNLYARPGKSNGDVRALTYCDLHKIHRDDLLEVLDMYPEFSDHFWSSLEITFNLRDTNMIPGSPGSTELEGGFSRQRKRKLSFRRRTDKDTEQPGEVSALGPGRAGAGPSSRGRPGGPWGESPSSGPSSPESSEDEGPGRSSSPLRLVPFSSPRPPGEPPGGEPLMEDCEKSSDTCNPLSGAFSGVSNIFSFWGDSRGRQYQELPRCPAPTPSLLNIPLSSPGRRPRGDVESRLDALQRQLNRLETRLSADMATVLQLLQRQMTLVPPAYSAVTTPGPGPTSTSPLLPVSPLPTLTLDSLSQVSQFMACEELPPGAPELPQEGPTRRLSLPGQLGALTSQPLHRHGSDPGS
row,SMILES,"hERG current change (%, negative = inhibition) at 1uM [%]"
1,NC(=O)c1c(NC(=O)c2ccccc2C(=O)O)sc2c1CCCC2,9.08
2,Cn1ccc(C(=O)Nc2ccc(Br)cc2Br)n1,-4.41
3,CCOc1ccc(NC(=O)CN(C)C(=O)c2ccccc2Cc2ccccc2)cc1OCC,3.9
4,Cc1nnc(SCC(=O)Nc2ccc(C(N)=O)cc2)n1-c1ccccc1,19.2
5,CCN=c1scc(-c2cccs2)n1/N=C/c1cc(OC)ccc1O,12.9
6,O=C(NNc1cc(N2CCCC2)nc(N2CCCC2)n1)c1ccc([N+](=O)[O-])cc1,-0.717
7,O=C(N=c1ccn(-c2nc3ccccc3nc2NS(=O)(=O)c2ccc(Cl)cc2)cc1)c1cccs1,17.5
8,CCN(CC(=O)Nc1ccccc1OC)C(=O)COc1ccc2ccccc2c1,11.3
9,COCCN(C(=O)COC(=O)/C=C/c1ccc(C)o1)c1c(N)n(Cc2ccccc2)c(=O)[nH]c1=O,8.42
10,O=C1N(Cc2ccc3c(c2)OCO3)c2ccccc2C1(O)c1c[nH]c2ccccc12 (stereo not shown),14.7
11,Cc1onc(-c2ccccc2Cl)c1C(=O)NCc1ccccc1F,11.3
12,CCOC(=O)N1CCC(N2Cc3cccc(C(=O)N4CCN(c5cccc(Cl)c5)CC4)c3C2=O)CC1,-16.8
13,O=C(O)c1cccc(N2C(=O)CSC2c2c(F)cccc2Cl)c1 (stereo not shown),10.3
14,CC1(C)c2[nH]c3ccccc3c2C[C@H]2C(=O)N(Cc3ccccc3)C(=O)N21,4.95
15,Cc1noc(C)c1CSc1nnc2ccc3ccccc3n12,-8.33
16,O=c1cc(CN2CCOCC2)nc(C2CC2)[nH]1,7.1
17,CC(=O)C1=C(O)C(=O)N(c2nccs2)C1c1ccccc1F (stereo not shown),16.3
18,COC(=O)c1ccc(C(=O)NC2CCCc3c2cnn3-c2ccc(C)c(C)c2)cc1 (stereo not shown),12.4
19,Cc1ccc(S(=O)(=O)CC(=O)N2CCN(c3ccc(F)cc3)CC2)cc1,-13.5
20,COc1ccc(CN2CCN(C(=O)CC(C)C)CC2)c(OC)c1OC,19.3
21,Nc1cc(C(=O)O)c(Oc2ccc(Cl)cc2Cl)cc1C(=O)O,4.01
22,CN(C)S(=O)(=O)c1ccc(C(=O)OCC(=O)c2csc(N3CCCCC3)n2)cc1,8.35

row,SMILES,"hERG current change (%, negative = inhibition) at 1uM [%]"
1,O=C(COC(=O)CSc1ccc(Cl)cc1)Nc1ccccc1,7.99
2,COc1ccc(NC(=O)COC(=O)c2ccc(OCc3ccc(Cl)cc3Cl)c(OC)c2)c(OC)c1,9.48
3,CSc1nc2sc3c(c2c(=O)n1C)CCC(C)C3 (stereo not shown),12.1
4,COc1ccc(C2CC(c3ccccc3)=NN2C(=O)COC(=O)c2ccc(Cl)nc2)cc1 (stereo not shown),11
5,Cc1ccccc1C(=O)c1ccc2c(c1)n(C)c(=O)n2C,5.59
6,CN(C(=O)CCNC(=O)N1CC(=O)Nc2ccccc21)C1CCCCC1,25.2
7,Cc1cc(C)cc(NC(=O)C2CCN(S(=O)(=O)c3c(C)n[nH]c3C)CC2)c1,1.58
8,COc1ccccc1CNc1ccc([N+](=O)[O-])cc1C,11.3
9,CS(=O)(=O)N1CCN(c2ccccc2NC(=S)NC(=O)c2ccccc2[N+](=O)[O-])CC1,15.6
10,COc1ccccc1CCc1nnc(CCC(=O)N(C)Cc2cccc3cnccc23)o1,-53.3
11,O=C(COc1ccccc1Cl)N(Cc1cccs1)C1CCS(=O)(=O)C1 (stereo not shown),9.15
12,Cc1c(NC(=O)c2ccc(-c3ccccc3)cc2)cccc1C(=O)O,-0.165
13,O=C(c1ccccc1)c1ccccc1N1C(=O)C=CC1=O,10.8
14,COc1cc(/C=N/Nc2nc(C)cc(=O)[nH]2)ccc1O,13.9
15,O=C(Nc1cccc([N+](=O)[O-])c1)N1CCCCCC1,20.5
16,O=c1c2ccccc2nnn1CSc1nnc(Nc2ccccc2)s1,0.932
17,CCOCC(=O)Nc1c(C(=O)Nc2ccccc2OC)oc2ccccc12,2.06
18,CCC(C)[C@H](NC(=O)N1CC(=O)Nc2ccccc21)C(=O)Nc1ccccc1C (stereo partly shown),11.6
19,O=C1c2cccnc2C(=O)N1Cc1ccc(S(=O)(=O)N2CCOc3ccccc32)cc1,16.4
20,C/C(=N/NC(=O)c1cccnc1)C1=C(O)CC(C)(C)CC1=O,18.4
21,CN(CCN1CCOCC1)C(=O)CC1C(=O)NCCN1Cc1ccccc1F (stereo not shown),15.1
22,O=C(c1cnn2c(C(F)F)cc(-c3ccccc3)nc12)N1CCN2CCCC2C1 (stereo not shown),-10.6

row,SMILES,"hERG current change (%, negative = inhibition) at 1uM [%]"
1,COc1ccc(-c2noc(CCCC(=O)NC3CCCCC3)n2)cc1,3.07
2,CC1C(=O)N2CCCc3cc(NC(=O)C4CCCCC4)cc1c32 (stereo not shown),10.7
3,O=C(c1cc(COc2ccccc2)on1)N1CCCC(CN2CCOCC2)C1 (stereo not shown),4.91
4,COc1ccc(-c2nnc(CSc3nnc(-c4ccncc4)n3C3CCCCC3)o2)cc1OC,-17.9
5,CC(=O)c1ccc(NC(=S)NCCCn2ccnc2)cc1,10.9
6,Cc1cccc(C(=O)NCC(=O)NC(C)CCc2ccccc2)c1 (stereo not shown),12.4
7,CC(OC(=O)Cc1ccc(F)cc1)C(=O)NCc1ccc2c(c1)OCO2 (stereo not shown),-1.5
8,Cc1ccccc1OCC(=O)Nc1nc2ccccc2[nH]1,6.74
9,CN(Cc1ccc(F)cc1)Cc1nc(-c2cnccn2)no1,17.9
10,COc1cccc(CNc2nc(SC)ncc2CO)c1,18.8
11,CCOc1ccc(N2C(=O)CS/C2=N/NC(=O)COc2ccc3ccccc3c2)cc1,11.8
12,O=C(OCC(=O)N1CCCC1)c1ccc(OC(F)(F)F)cc1,0.394
13,O=C(Nc1ccc(F)cc1)NC1CCN(Cc2ccccc2)CC1,-6.06
14,COc1ccc([N+](=O)[O-])cc1CSc1nnc(NC(C)=O)s1,8.56
15,CCOc1cc(C(=O)Nc2ccccc2N2CCOCC2)ccc1OCC(=O)N1CCCCC1,7.14
16,Cc1nnc2ccc(N3CCOCC3)nn12,5.81
17,Cc1ccc(OCC(=O)Oc2ccccc2[N+](=O)[O-])cc1,7.64
18,Fc1ccc(-n2c(-c3ccc4ccccc4n3)n[nH]c2=S)cc1,17.1
19,Cc1cccc(C)c1NC(=O)Cn1c(CN2CCCCC2)nc2ccccc2c1=O,9.77
20,COc1cc(CC2COC(c3ccc(O)c(OC)c3)C2COC(C)=O)ccc1O (stereo not shown),-0.988
21,CCN(CC)C(=O)CSc1ncccc1-c1nc2ccccc2[nH]1,12.9
22,CN1CCN(C(CNC(=O)C(=O)Nc2ccc3c(c2)OCCO3)c2ccc(F)cc2)CC1 (stereo not shown),-3.51

row,SMILES,"hERG current change (%, negative = inhibition) at 1uM [%]"
1,O=C(OCC(=O)N1CCc2ccccc21)c1cccnc1,1.03
2,Cn1c(NNC(=O)CCC2CCCCC2)cc(=O)n(C)c1=O,13.3
3,CN(Cc1ccccc1)C(=O)c1[nH]cnc1C(=O)NCC(=O)OCc1ccccc1,0.241
4,Cc1ccc(-c2nc(S(=O)(=O)c3ccc(C)cc3)c(SCC(N)=O)o2)cc1,7.75
5,Cc1ccccc1N1CCN(CC(=O)NCc2ccc(Cl)cc2)CC1,17.9
6,CCC(=O)NC(=S)Nc1c(C)cc(Br)cc1C,-0.392
7,COc1ccccc1CNCc1cc(=O)oc2c(C)c(C)ccc12,3.32
8,O=S(=O)(c1ccc(-c2ccon2)s1)N1CCN(c2ccccn2)CC1,9.78
9,COCCNC(=O)c1ccc(N(C)S(=O)(=O)c2ccc(OC)c(OC)c2)cc1,7.17
10,O=c1oc2cc(OCc3ccc([N+](=O)[O-])cc3)ccc2c2c1CCCC2,1.05
11,CCCCN1CC(=O)N2Cc3[nH]c4ccccc4c3C[C@H]2C1=O,15.5
12,CC1CN(CC(=O)NCc2ccc(Cl)cc2)CC(C)O1 (stereo not shown),16.6
13,N/C(=N\O)c1cccc(CS(=O)(=O)c2ccccn2)c1,19
14,CC(=O)Nc1ccc(Nc2cc(-c3ccccc3)nc3ncnn23)cc1,15.2
15,COc1ccc(OC)c(S(=O)(=O)N2CCNCC2)c1,8
16,O=C(c1ccc(COc2ccc3c(c2)CCC3)o1)N1CCN(c2ccccc2)CC1,14.5
17,O=C(CNC(=S)N(CCCN1CCOCC1)Cc1cccs1)NC1CCCCC1,4.41
18,CCC(=O)Nc1ccc(Cl)c(NC(=O)c2cccnc2)c1,9.91
19,Cc1csc(=O)n1CCC(=O)OCC(=O)Nc1ncc(Cl)cc1Cl,6.26
20,COCn1c(COc2ccc3ccccc3c2)nc2ccccc21,9.13
21,CCC(=O)N1c2ccc(C)cc2C2=NNC(=S)NC21O (stereo not shown),8.47
22,O=C(O)CSc1nnc(Cc2cccc3ccccc23)n1-c1cc(C(F)(F)F)cc(C(F)(F)F)c1,12.9
